Source: the supplement of paper PMC4967469
By IC50 is meant the dose at which the fit gives 50% viability; a limit (>, <) means that the fit lies beyond the doses tested. For AUC the same curve is integrated over the 256-fold range of doses and scaled to a fraction: 1 means no effect, lower means more sensitive. For some assays here: The top dose, if marked as inferred, comes from the curve model; the source does not state it. For some assays here: Drugs with an entry number were screened twice under separate entries, and the two screens often disagree.

How the values were obtained:
Test in all cases: Viability of human cancer cell lines after 72 h of drug (GDSC screen)
OSI-930 = compound: O=C(Nc1ccc(OC(F)(F)F)cc1)c1sccc1NCc1ccnc2ccccc12 [OSI-930]; settings: top dose 10.24 µM
Experimental: (§1)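 Human cancer cell lines in 384-well plates, medium with 10% serum, drug for 72 h over a 256-fold dose range (nine 2-fold or five 4-fold steps up to the top dose). Adherent lines were fixed and stained with the nucleic acid dye Syto60, suspension lines read with resazurin; signal relative to control wells, capped at 0 and 100%. One two-parameter sigmoid per drug and line, fitted in a mixed model over all curves with the slope shared within a line.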

NSC-87877 = compound: O=S(=O)(O)c1ccc2cc(N=Nc3cc(S(=O)(=O)O)c4cccnc4c3O)ccc2c1 [NSC-87877]; settings: top dose 16 µM; top dose inferred
Experimental: as §1

HG-5-88-01 = compound: COc1cc(N2CCC(C(N)=O)CC2)ccc1Nc1nc(N)c(Cl)c(Nc2ccccc2S(=O)(=O)C(C)C)n1 [HG-5-88-01]; settings: top dose 10 µM; top dose inferred
Experimental: as §1

Bleomycin = compound: Cc1c(N)nc([C@H](CC(N)=O)NC[C@H](N)C(N)=O)nc1C(=O)N[C@H](C(=O)N[C@H](C)[C@@H](O)[C@H](C)C(=O)N[C@H](C(=O)NCCc1nc(-c2nc(C(=O)NCCC[S+](C)C)cs2)cs1)[C@@H](C)O)[C@@H](OC1OC(CO)C(O)C(O)C1OC1OC(CO)C(O)C(OC(N)=O)C1O)c1cnc[nH]1 [Bleomycin]
Experimental: as §1

Tamoxifen = compound: CC/C(=C(\c1ccccc1)c1ccc(OCCN(C)C)cc1)c1ccccc1 [Tamoxifen]; settings: top dose 5 µM
Experimental: as §1

VNLG/124 = compound: CCCC(=O)OCc1ccc(OC(=O)/C=C(C)/C=C/C=C(C)/C=C/C2=C(C)CCCC2(C)C)cc1 [VNLG/124]; settings: top dose 5.12 µM; top dose inferred
Experimental: as §1

Masitinib = compound: Cc1ccc(NC(=O)c2ccc(CN3CCN(C)CC3)cc2)cc1Nc1nc(-c2cccnc2)cs1 [Masitinib]; settings: top dose 20 µM
Experimental: as §1

LAQ824 = compound: O=C(/C=C/c1ccc(CN(CCO)CCc2c[nH]c3ccccc23)cc1)NO [LAQ824]; settings: top dose 1.024 µM; top dose inferred
Experimental: as §1

BX-912 = compound: O=C(Nc1cccc(Nc2ncc(Br)c(NCCc3cnc[nH]3)n2)c1)N1CCCC1 [BX-912]; settings: top dose 10.24 µM; top dose inferred
Experimental: as §1

[1] = top dose 50 µM, screen: GDSC drug entry 1378, top dose inferred
[2] = top dose 64 µM, screen: GDSC drug entry 190

Cell Line | AUC (OSI-930) | IC50 (OSI-930) | AUC (NSC-87877) | IC50 (NSC-87877) | AUC (HG-5-88-01) | IC50 (HG-5-88-01) | AUC (Bleomycin; [1]) | IC50 (Bleomycin; [1]) | AUC (Bleomycin; [2]) | IC50 (Bleomycin; [2]) | AUC (Tamoxifen) | IC50 (Tamoxifen) | AUC (VNLG/124) | IC50 (VNLG/124) | AUC (Masitinib) | IC50 (Masitinib) | AUC (LAQ824) | IC50 (LAQ824) | AUC (BX-912) | IC50 (BX-912)
SW872 (soft tissue, adherent) | 0.974 | > 10.2 µM | 0.985 | > 16 µM | 0.887 | 9.3 µM | 0.383 | 1.54 µM | 0.44 | 2.79 µM | 0.977 | > 5 µM | 0.989 | > 5.12 µM | 0.954 | > 20 µM | 0.525 | 0.0741 µM | 0.982 | > 10.2 µM
COLO-829 (melanoma, adherent) | 0.969 | > 10.2 µM | 0.978 | > 16 µM | 0.967 | > 10 µM | 0.869 | > 50 µM | 0.75 | 30.4 µM | 0.965 | > 5 µM | 0.979 | > 5.12 µM | 0.919 | > 20 µM | 0.716 | 0.354 µM | 0.979 | > 10.2 µM
TC-71 (Ewing sarcoma, adherent) | 0.933 | > 10.2 µM | 0.992 | > 16 µM | 0.721 | 2.32 µM | 0.696 | 9.91 µM | 0.948 | > 64 µM | 0.973 | > 5 µM | 0.986 | > 5.12 µM | 0.883 | 15.2 µM | 0.668 | 0.172 µM | 0.586 | 1.06 µM
SU-DHL-10 (B-cell lymphoma, suspension) | 0.919 | 7.29 µM | 0.995 | > 16 µM | 0.994 | > 10 µM | 0.919 | 35.6 µM | – | – | 0.997 | > 5 µM | 0.994 | > 5.12 µM | 0.917 | 14 µM | – | – | 0.346 | 0.273 µM
LOXIMVI (melanoma, semi-adherent) | 0.976 | > 10.2 µM | 0.983 | > 16 µM | 0.943 | > 10 µM | 0.139 | 0.279 µM | 0.188 | 0.536 µM | 0.973 | > 5 µM | 0.99 | > 5.12 µM | 0.881 | 16.9 µM | 0.214 | 0.0105 µM | 0.81 | 4.69 µM
MES-SA (uterus, adherent) | 0.992 | > 10.2 µM | 0.981 | > 16 µM | 0.976 | > 10 µM | 0.45 | 2.33 µM | 0.395 | 2.15 µM | 0.986 | > 5 µM | 0.992 | > 5.12 µM | – | – | 0.567 | 0.0947 µM | 0.873 | 7.46 µM
GP5d (large intestine, adherent) | 0.951 | > 10.2 µM | 0.991 | > 16 µM | 0.934 | > 10 µM | 0.877 | 41.2 µM | 0.642 | 9.42 µM | 0.99 | > 5 µM | 0.985 | > 5.12 µM | 0.86 | 14 µM | 0.437 | 0.0439 µM | 0.918 | > 10.2 µM
NCI-H1688 (small cell lung carcinoma, adherent) | 0.976 | > 10.2 µM | 0.985 | > 16 µM | 0.978 | > 10 µM | 0.887 | > 50 µM | 0.899 | > 64 µM | 0.985 | > 5 µM | 0.983 | > 5.12 µM | 0.83 | 14.3 µM | 0.486 | 0.0585 µM | 0.941 | > 10.2 µM
MFE-319 (endometrium, adherent) | 0.984 | > 10.2 µM | 0.952 | > 16 µM | 0.965 | > 10 µM | 0.77 | 18.4 µM | 0.2 | 0.535 µM | 0.973 | > 5 µM | 0.982 | > 5.12 µM | 0.901 | > 20 µM | 0.482 | 0.0574 µM | 0.958 | > 10.2 µM
SK-LU-1 (lung adenocarcinoma, adherent) | 0.939 | > 10.2 µM | 0.977 | > 16 µM | 0.839 | 9.63 µM | 0.731 | 17.4 µM | 0.359 | 1.46 µM | 0.962 | > 5 µM | 0.974 | > 5.12 µM | 0.868 | > 20 µM | 0.61 | 0.139 µM | 0.89 | > 10.2 µM
NB7 (neuroblastoma, adherent) | 0.887 | > 10.2 µM | 0.977 | > 16 µM | 0.985 | > 10 µM | 0.967 | > 50 µM | 0.888 | > 64 µM | 0.948 | > 5 µM | 0.98 | > 5.12 µM | 0.79 | 9.38 µM | 0.367 | 0.027 µM | 0.778 | 4.34 µM
IM-95 (stomach, adherent) | 0.975 | > 10.2 µM | 0.986 | > 16 µM | 0.962 | > 10 µM | 0.815 | 29.8 µM | 0.278 | 0.896 µM | 0.984 | > 5 µM | 0.94 | > 5.12 µM | 0.915 | > 20 µM | 0.274 | 0.0138 µM | 0.898 | > 10.2 µM
LB996-RCC (kidney, adherent) | 0.973 | > 10.2 µM | 0.983 | > 16 µM | 0.902 | > 10 µM | 0.201 | 0.341 µM | 0.119 | < 0.25 µM | 0.977 | > 5 µM | 0.973 | > 5.12 µM | 0.98 | > 20 µM | 0.541 | 0.0846 µM | 0.973 | > 10.2 µM
